Measured values as given in the RNAGym collection of RNA variant scans (doi:10.1073/pnas.2313332121).
Variants at the background level are over-represented here.

B1: TPR 5TU (parent)
chain: GGAUCUUCUCGAUCUAACAAAAAAGACAAAUCUGCCACAAAGCUUGAGAGCAUCUUCGGAUGCAGAGGCGGCAGCCUUCGGUGGCGCGAUAGCGCCAACGUUCUCAACUAUGACACGCAAAACGCGUGCUCCGUUGAAUGGAGUUUAUCAUG

Variants of: B1
Assay: polymerase ribozyme fitness, log enrichment relative to wild type (log ratio); higher = more active; in vitro selection for triplet polymerase activity
In short: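 Input and output libraries were sequenced on Illumina after a single in vitro selection round, run in triplicate on PCR-built, transcribed mutant libraries of each subunit of a heterodimeric triplet polymerase ribozyme. Selection annealed libraries to a biotinylated primer, the partner subunit and triplets, incubated them frozen at −7 °C, then gel-excised extended constructs for streptavidin-bead capture and RT-PCR. Genotypes with ≥10 input reads and ≥1 read per output were kept. Fitness is the logarithm, taken in base 2, of genotype enrichment divided by wild-type enrichment, using inverse-variance-weighted replicate averages.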

Polymerase ribozyme fitness (log ratio), -4.17:
A24U U61A C93A C116G

Polymerase ribozyme fitness (log ratio), -3.23:
G25C C57A C87U A97G

Polymerase ribozyme fitness (log ratio), -4.04:
G25U G48A G84A C96G

Polymerase ribozyme fitness (log ratio), -3.4:
G25U G83A

Polymerase ribozyme fitness (log ratio), ≤ -4.2:
A26C C93G C125U
G25A G88A A91G C96A
A24U A52U G67U A73U G94U A138C A150U
A24U C57U A89U G92C U127C C131G
A24U U55G G70C C75G C85G G128A
A24U G42A G50C C72G C96G U127G
A24U U31A A37U G143C
A24U U55G C85U U139C
A24U A29U G86U A137U G141A
G25U A26C A41U G68C C87U C95G C96U G100A U151A
A26G A91U U104G A122C
G25U A49C G68U G84A C87G A89U G94C C114A U148G
A24U U77G C105G A120U
G25U A49U G67C C95A A119U A150U
G25C C27G C32U A40C U55A C57A G88U C96U G141A
G25U A29G C51U G67A C87G G112U G141C U148A
A26C C54U C85G C87U U111C G133C
A26C A107G A122G G133U U139C A147C
A26U A91G A115G A150C
A26U C96U G140C
A26C C43U A52G G71C A97G
A26G A39U C93A U134G
A26U A28U G92A C96U C116U
G25U U45A G83C A107U U109C
A24U A30C C93G C118A
A24U U45A A49C C57G U77G G83C A89U
A26U G48U G81C A106U U134C U135G
A24U U55G U61A C123U G133C
A24U U45G A106G A120U A121G A122G G143C
A26U G50C C85G C95A C96U
A24U C43G U56G A73G
A26C C32A C57G C75A
A26G A41G G59A A147C
G25C G50A C85U A91U G92C C99A U101G U102C C125G
G25A G42U G80A C93U C116U
A26C G83C A91G C108A C116G G143A
A26U A107G
A24U U55G A142U A150G
G25C C36A A91C G94U A97C A122C
A26C C51U A52C G59C
A24U G68C G83U A107C
A24U A28U C79G A91U A97U C116U C132U U135A
A26U C51U A64C G81C A106U
A24U G74U C99U A142C C149G
A24U G133C G141C
A26U C96U C108G U127A
A24U A52C G67C U82G U109G
A26C G46U C54G C76U C87G C93A G128C U135G
A24U G25C A28G A30G A49U G83A C87A
G25U A29G
G25A U44G
G25U A49U U55A A91U
G25U U45G U90C C95A A97C
A26U A60U G88C C95U A138C U151A
A26G C51U U55A C85A C93G G94C A107C
G25U A89U C96G G100A U102C C118A A119G
G25U A40U G42A C43A C63A A64C C79G C93A A106G
A24G U56A G65C C85U G143U
A24U C35A A52U G84A G136A
A26G G81A C95U
A24G U31C G88A
A24U A41C G42A C95U A98U G117A
A24U U53A A66G C93G U101C A119U
A26U G50A A60G G68U U134C
A26U A41G C75G A91U G124C
G25U G86U A98C C99U A121G
G25U C32U G67A C96A U139C
G25C G46C C85G C87U G124C C125U U146C
A24U C85G C105G A107U U111A A115U C132G
A26G C85G A97U C118U C131G
A24U A47G G62U C79G A91G
A26G G83A G141C

Polymerase ribozyme fitness (log ratio), -4.19:
A26C C93G C114U

Polymerase ribozyme fitness (log ratio), 0.361:
A24U C38U

Polymerase ribozyme fitness (log ratio), -2.08:
A26U C51U G58C

Polymerase ribozyme fitness (log ratio), -3.26:
A26U A89G

Polymerase ribozyme fitness (log ratio), -3.62:
A24U G34U G42A U55G A91C G94A

Polymerase ribozyme fitness (log ratio), -1.6:
A26U A41G G62U

Polymerase ribozyme fitness (log ratio), -3.36:
A26U C85U A115G

Polymerase ribozyme fitness (log ratio), -1.67:
A26C C96U G124A
